Source: PMC4336329 (PLoS ONE, 2015)
About 2,200 (0.71%) of roughly 310,000 compounds showed an effect of 50% or more. Effects have a minus sign here. The list shows a part of the results.

Biological target: human ether-à-go-go-related gene (hERG) potassium channel (human, UniProt Q12809)
Assay: primary screen, population patch clamp on CHO cells stably expressing hERG

Chain of human ether-à-go-go-related gene (hERG) potassium channel (Q12809 whole entry, looked up): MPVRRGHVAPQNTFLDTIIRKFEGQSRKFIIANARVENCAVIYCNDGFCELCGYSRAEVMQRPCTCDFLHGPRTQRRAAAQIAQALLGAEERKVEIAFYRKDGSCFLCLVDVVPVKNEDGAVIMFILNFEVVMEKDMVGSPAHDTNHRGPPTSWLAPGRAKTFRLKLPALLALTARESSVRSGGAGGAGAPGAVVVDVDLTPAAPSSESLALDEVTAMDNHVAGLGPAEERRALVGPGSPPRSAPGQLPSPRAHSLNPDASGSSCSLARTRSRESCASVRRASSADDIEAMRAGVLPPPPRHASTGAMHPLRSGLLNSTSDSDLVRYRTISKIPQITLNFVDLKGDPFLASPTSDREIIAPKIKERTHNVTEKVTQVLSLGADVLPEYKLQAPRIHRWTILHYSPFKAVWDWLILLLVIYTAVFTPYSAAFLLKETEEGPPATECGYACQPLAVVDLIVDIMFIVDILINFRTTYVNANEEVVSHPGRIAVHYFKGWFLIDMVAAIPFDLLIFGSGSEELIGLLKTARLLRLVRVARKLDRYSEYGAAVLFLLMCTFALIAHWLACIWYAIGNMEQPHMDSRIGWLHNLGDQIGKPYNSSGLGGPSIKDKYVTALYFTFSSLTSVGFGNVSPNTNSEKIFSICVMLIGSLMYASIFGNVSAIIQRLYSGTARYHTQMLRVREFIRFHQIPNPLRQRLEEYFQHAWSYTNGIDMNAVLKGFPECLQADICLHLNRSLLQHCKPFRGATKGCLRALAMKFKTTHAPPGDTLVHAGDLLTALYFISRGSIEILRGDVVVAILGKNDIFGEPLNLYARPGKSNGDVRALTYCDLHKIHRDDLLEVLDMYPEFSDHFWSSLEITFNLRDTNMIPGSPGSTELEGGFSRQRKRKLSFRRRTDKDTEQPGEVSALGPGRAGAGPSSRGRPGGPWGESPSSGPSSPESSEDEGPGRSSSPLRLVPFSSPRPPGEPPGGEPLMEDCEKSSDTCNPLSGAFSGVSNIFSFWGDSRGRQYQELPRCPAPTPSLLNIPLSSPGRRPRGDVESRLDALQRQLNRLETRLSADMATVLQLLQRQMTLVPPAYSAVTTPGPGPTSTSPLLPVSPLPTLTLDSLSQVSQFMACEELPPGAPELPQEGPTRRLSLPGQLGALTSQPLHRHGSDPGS

| SMILES | hERG current change (%, negative = inhibition) at 1uM [%] |
| --- | --- |
| COc1ccc(C2N(c3ccc(OC)cc3)C(=S)N3CCCN23)cc1 (stereo not shown) | 6.39 |
| CCc1cc(=O)n2[nH]c(C)c(-c3ccccc3OC)c2n1 | 6.99 |
| CC(=O)c1cc(C(=O)N2CCc3c([nH]c4ccccc34)C2C2CCCCC2)[nH]n1 (stereo not shown) | 14.9 |
| CCn1cc(C(=O)OCC(=O)Nc2cccc(Cl)c2Cl)c(=O)c2ccc(C)nc21 | 13.7 |
| COc1cccc(N(CC(=O)N/N=C(\C)c2cccs2)S(C)(=O)=O)c1 | 5.26 |
| COc1ccccc1NC(=O)CSCC(=O)N1c2ccccc2CCc2ccccc21 | -0.734 |
| CCN(CCCNC(=O)C1CCN(S(=O)(=O)CC)CC1)c1ccccc1 | -2.26 |
| Cc1cccc(CCNC(=O)C2CCC(CNc3c(N4CCCC4)c(=O)c3=O)CC2)c1 (stereo not shown) | 7.13 |
| Cc1nc(Nc2cccc(O)c2)c2oc3ccccc3c2n1 | 11.8 |
| CC(=O)Nc1c2c(nn1-c1ccccc1C)CS(=O)(=O)C2 | 15 |
| Cc1cccc(OCCc2nnc(N)s2)c1C | 12.1 |
| O=C(Nc1ccc(F)cc1)N1CCC(c2nc3c(nnn3Cc3ccccc3Cl)c(=O)[nH]2)CC1 | 11.6 |
| C=CCN(CC(=O)NC1CCCC1)C(=O)C(=O)Nc1ccc2c(c1)OCCO2 | 19.6 |
| O=C(Nc1cc(C(F)(F)F)ccc1N1CCOCC1)c1ccccc1 | 14 |
| O=C(NCc1nc(-c2ccccc2)cs1)c1ccccc1 | 5.98 |
| CCSc1nnc(NC(=O)CSc2nc3c(cc2C#N)CCCC3)s1 | 10.8 |
| Cc1ccc(/C=N/n2c(=O)c(C(C)(C)C)nn3cnnc23)cc1 | 4.19 |
| CC(C)(C)NC(=O)CN(CCN1CCOCC1)C(=O)CNS(=O)(=O)c1ccc(Cl)cc1 | 19.7 |
| O=C(NCc1ccccc1)C(=O)NCC(c1ccco1)N1CCOCC1 (stereo not shown) | 3.72 |
| CC1CCCN(C(=O)c2ccc(S(=O)(=O)Nc3ccccc3Cl)cc2)C1 (stereo not shown) | 12.6 |
| N#C/C(=C1\C(=O)Nc2c(Cl)cc(Cl)cc21)c1nnc2n1CCCCC2 | 8.09 |
| CCOC(=O)c1ccc(NC(=O)C2CCN(S(=O)(=O)c3c(C)nn(C)c3C)CC2)cc1 | 0.89 |
| C=CCNC(=S)N1CCN(c2cccc(C(F)(F)F)c2)CC1 | 1.47 |

| SMILES | hERG current change (%, negative = inhibition) at 1uM [%] |
| --- | --- |
| Cc1ccc(OCCn2ccc(=O)[nH]c2=O)cc1C | -0.181 |
| CC(=O)Nc1ccc(S(=O)(=O)Nc2ccc(N3CCOCC3)c(F)c2)cc1 | -1.81 |
| O=C(CSc1n[nH]c(-c2ccccc2)n1)Nc1ccc(N2CCOCC2)cc1 | 15 |
| Cc1ccc(OCc2ccc(C(=O)N3CCCC3)o2)cc1C | -8.55 |
| CCS(=O)(=O)c1ccccc1C(=O)NC1CCCc2ccccc21 (stereo not shown) | 16.5 |
| OCC[C@H]1C[C@@H](O)[C@H](O)[C@]2(CCCCO2)O1 | 9.2 |
| C=CCc1cccc2cc(C(=O)NC(C)(C)C)c(=O)oc12 | 8.38 |
| O=C(Nc1ccc2c(c1)OCO2)N1CCN(c2ccc(F)cc2)CC1 | 4.01 |
| CCOC(=O)C(=O)Nc1nnc(Cc2ccc(OC)c(OC)c2)s1 | 8.39 |
| CCOCCCNC(=O)C1CCN(C(=O)N(C)C)CC1 | 16.1 |
| Cc1ccc(Nc2nc3c(c(=O)[nH]c(=O)n3C)n2Cc2ccc(F)cc2)cc1 | 19 |
| CC(=O)NC(CCS(C)(=O)=O)C(=O)Nc1nc(C)cs1 (stereo not shown) | 7.95 |
| Cc1cc2cc(CNC(=O)CCC(=O)O)ccc2[nH]1 | -10.2 |
| CCCCN1CC2=C(C1=O)C(c1ccc(O)cc1)NC(=O)N2C (stereo not shown) | 0.787 |
| Cc1cccc(C)c1NC(=O)CNC(=O)c1cncc(Br)c1 | 17.3 |
| COc1ccc(CC(NC(C)=O)C(=O)NC2CCN(C(=O)c3ccc(OC)c(OC)c3)CC2)cc1OC (stereo not shown) | 10.9 |
| CCN1C(=O)CSC1=NC12CC3CC(CC(C3)C1)C2 | 11.4 |
| CCOC(=O)c1ccc(NC(=O)COC(=O)Cc2csc(-c3ccccc3)n2)cc1 | 7.2 |
| O=C1Nc2ccc(Cl)cc2[C@@](C#CC2CC2)(C(F)(F)F)O1 | 21.8 |
| CCCc1nnc(NC(=O)c2nc(S(=O)(=O)Cc3cccc(C)c3)ncc2Cl)s1 | 21 |
| CN(C)CCN1C(=O)C(=O)/C(=C(/O)c2ccccc2)C1c1ccccc1F (stereo not shown) | 2.27 |
| Cc1cccc(NC(=O)Cn2c(=O)n(C)c3ccccc32)c1 | 16.3 |
| CCOc1ccc(NC(=O)CN(C)C(=O)c2c(C)noc2C)cc1OCC | 9.87 |

| SMILES | hERG current change (%, negative = inhibition) at 1uM [%] |
| --- | --- |
| COC(=O)[C@@H]1CCCN1Cc1c(C(=O)N2CCCCC2)nc2c(C)cccn12 | -4.73 |
| C/C(=N\NC(=O)CNc1cccc(C(F)(F)F)c1)c1cccs1 | 15.2 |
| CC1CCCCC1NC(=O)CCNC(=O)N1CC(=O)Nc2ccccc21 (stereo not shown) | 11 |
| CCCCCN(C(=O)COC(=O)CSc1ccc([N+](=O)[O-])cc1)c1c(N)n(CCCC)c(=O)[nH]c1=O | -12.6 |
| CC1(C)CC(=O)C=C(NCC(=O)O)C1 | 9.12 |
| O=S(=O)(NC1CCCCC1N1CCN(c2ccccc2F)CC1)c1ccccc1 (stereo not shown) | 14 |
| Cc1ccccc1CNC(=O)C1CCC(=O)N(C2CC2)C1 (stereo not shown) | 4.81 |
| COc1ccc(C(=O)CN2C(=O)NC(C)(c3ccc(C)cc3)C2=O)cc1OC (stereo not shown) | 13.7 |
| COc1ccccc1NC(=O)C(=O)/C=C(\O)c1ccccc1 | 13.8 |
| CC(=O)c1ccc(OC(=O)Cc2cccc3ccccc23)cc1 | 12.8 |
| CC(C)N1CSC(=S)N(Cc2ccccc2)C1 | 14.7 |
| Nc1cc(-c2ccccc2)n2c(n1)nc1ccccc12 | 1.6 |
| COc1cccc(-c2ccc(NC(=O)C3CCCN(Cc4cnc(N(C)C)s4)C3)cc2)c1 (stereo not shown) | 10 |
| Cc1ccccc1NC(=O)c1nc[nH]c1C(=O)NCc1ccccc1 | 1.14 |
| C/C(=N\S(=O)(=O)c1ccc(C)cc1)N1CCCCC1 | 0.602 |
| O=C(CCc1ccccc1)NNC(=O)CCc1ccccc1 | 12.4 |
| Cc1[nH]c2ccccc2c1C(=O)C(=O)NCCc1c[nH]c2ccccc12 | 15.4 |
| O=C(Cn1cnc2c(cnn2-c2ccccc2)c1=O)NCCc1ccccc1 | 10.3 |
| Cc1cc(-n2c(C)cc(C(=O)CSc3nncn3C(C)C)c2C)no1 | 11.6 |
| CC1CCc2sc(C(=O)Nc3ccc(N4CCOCC4)cc3)cc2C1 (stereo not shown) | 12.9 |
| COc1ccc(Br)cc1/C=N/NC(=O)c1nc(-c2ccccc2)n2c1CCCCC2 | 14.1 |
| CCOc1ccc(S(=O)(=O)Nc2ccn(C)n2)cc1 | 6.54 |
| O=C(COC(=O)c1ccccc1Nc1ccccc1F)c1ccccc1 | 14.2 |

| SMILES | hERG current change (%, negative = inhibition) at 1uM [%] |
| --- | --- |
| COc1cccc(OC)c1C(=O)Nc1ccc2c(c1)n(C)c(=O)n2C | 17 |
| COc1ccc(C(=O)c2ccsc2N)cc1 | 9.55 |
| O=C(Nc1nnc(CCOCCOCCc2nnc(NC(=O)c3ccco3)s2)s1)c1ccco1 | 2.67 |
| C/C(=N\NC(=O)c1ccc(Cl)cc1)c1cccc(NC(=O)c2cccnc2)c1 | 2.64 |
| COc1nc(OCC#N)nc(N2CCCCC2)n1 | 11.8 |
| Nn1c(SCc2ccccc2)nc2ccccc21 | 2.87 |
| O=C(O)Cc1ccc(NC(=O)c2cccs2)cc1 | 9.59 |
| COC(=O)c1ccc(C)c(NC(=O)c2ccc(Cl)c([N+](=O)[O-])c2)c1 | 5.94 |
| Cc1cccc(C)c1OCc1nnc(NC(=O)CSc2ccc(Cl)cc2)s1 | 14.3 |
| CC(C)(C)n1cn[nH]c1=S | 13.8 |
| COc1ccc(S(=O)(=O)N2CCC(C(=O)N3CCc4ccccc4C3)CC2)cc1Cl | 1.48 |
| O=C(Oc1ccc2c(=O)c(Cl)coc2c1)c1cccnc1 | 9.37 |
| COc1ccccc1OCC(=O)NC1CCSc2ccccc21 (stereo not shown) | 8.33 |
| COc1ccc(NC(=O)CN(C)S(=O)(=O)c2ccc3c(c2)CCCN3C(C)=O)cc1 | 15.5 |
| CC1(C)CC(=O)C=C(NCc2ccncc2)C1 | 8.08 |
| COc1ccc(N2CCN(C(=O)c3cccc4nc(C)oc34)CC2)cc1 | 10.8 |
| COc1ccc(Nc2nnc(SCC(=O)N3CC(=O)Nc4ccccc43)s2)cc1 | 11.8 |
| CN(C(=O)COC(=O)c1cccc(S(=O)(=O)N2CCCCC2)c1)C1CCS(=O)(=O)C1 (stereo not shown) | -3.08 |
| CC1CCC/C(=N\NS(=O)(=O)c2ccccc2)C1 (stereo not shown) | 15.4 |
| Cc1c(C(=O)OCC(=O)Nc2ccccc2OC(F)F)cccc1[N+](=O)[O-] | 0.113 |
| COc1ccccc1-c1nnc(Sc2nc([N+](=O)[O-])nn2C)o1 | -2.46 |
| Cc1nc2cc(Cl)c(Cl)cc2n1-c1ccccn1 | -8.18 |
